Out of some 310,000 compounds screened, about 2,200 (0.71%) showed an effect of 50% or more. The effect is printed as a negative number. The list shows a part of the results.

The target in this assay is human ether-à-go-go-related gene (hERG) potassium channel (human, UniProt Q12809). Kind of assay: primary screen, population patch clamp on CHO cells stably expressing hERG.
human ether-à-go-go-related gene (hERG) potassium channel, sequence (Q12809 whole entry, looked up): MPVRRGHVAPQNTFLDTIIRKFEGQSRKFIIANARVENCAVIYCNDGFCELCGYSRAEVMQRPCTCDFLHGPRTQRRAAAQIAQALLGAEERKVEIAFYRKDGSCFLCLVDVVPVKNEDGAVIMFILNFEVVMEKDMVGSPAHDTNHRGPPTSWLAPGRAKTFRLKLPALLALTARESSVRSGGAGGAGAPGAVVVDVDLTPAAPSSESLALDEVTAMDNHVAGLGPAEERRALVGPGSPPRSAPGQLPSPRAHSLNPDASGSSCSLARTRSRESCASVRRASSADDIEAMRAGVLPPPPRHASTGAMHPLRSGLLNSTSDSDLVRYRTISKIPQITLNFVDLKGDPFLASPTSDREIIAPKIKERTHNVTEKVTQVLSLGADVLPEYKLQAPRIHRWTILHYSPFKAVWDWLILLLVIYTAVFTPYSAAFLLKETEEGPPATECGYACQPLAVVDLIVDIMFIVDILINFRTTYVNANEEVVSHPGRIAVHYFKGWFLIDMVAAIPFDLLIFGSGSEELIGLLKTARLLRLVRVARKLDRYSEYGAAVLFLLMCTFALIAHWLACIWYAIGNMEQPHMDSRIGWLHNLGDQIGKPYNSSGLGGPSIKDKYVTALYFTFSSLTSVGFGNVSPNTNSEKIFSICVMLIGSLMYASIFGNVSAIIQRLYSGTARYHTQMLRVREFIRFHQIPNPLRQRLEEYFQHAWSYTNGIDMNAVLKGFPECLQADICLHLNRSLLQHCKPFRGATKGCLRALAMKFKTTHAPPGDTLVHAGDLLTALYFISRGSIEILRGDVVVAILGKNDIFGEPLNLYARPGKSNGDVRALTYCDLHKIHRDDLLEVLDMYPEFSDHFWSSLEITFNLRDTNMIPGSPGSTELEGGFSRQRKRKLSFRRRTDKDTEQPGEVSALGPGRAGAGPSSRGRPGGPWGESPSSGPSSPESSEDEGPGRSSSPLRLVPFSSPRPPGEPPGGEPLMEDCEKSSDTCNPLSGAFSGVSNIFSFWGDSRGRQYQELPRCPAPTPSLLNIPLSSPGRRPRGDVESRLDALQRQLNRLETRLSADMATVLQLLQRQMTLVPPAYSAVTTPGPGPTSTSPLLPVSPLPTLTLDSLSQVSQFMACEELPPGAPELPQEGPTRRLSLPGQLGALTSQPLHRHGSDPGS
In the case of `CC[C@@]12C(=O)N(c3ccccc3)C(=O)N1[C@H](c1cccc(C)c1)[C@@H]1C(=O)N(Cc3ccccc3)C(=O)[C@@H]12`, the “hERG current change (%, negative = inhibition) at 1uM” value is on record as 20.5%.

Regarding `Cc1ccc2nnn(Cc3cccc(C(C)(C)C)c3O)c2c1`, the “hERG current change (%, negative = inhibition) at 1uM” value came out at 11.1%.

Regarding `Cn1nccc1C(=O)N1CCCC(C(=O)c2ccc(Oc3ccccc3)cc2)C1` (stereo not drawn), the “hERG current change (%, negative = inhibition) at 1uM” value was found to be 7.34%.

With `Cc1noc(C)c1CSc1nc2cc(S(=O)(=O)N3CCOCC3)ccc2o1`, the “hERG current change (%, negative = inhibition) at 1uM” value came out at 1.65%.

Turning to `COc1ccccc1NC(=O)C1CCOC1=O` (stereo not drawn), the “hERG current change (%, negative = inhibition) at 1uM” value came to 13.1%.

In the case of `CCN1CCN(c2ccc(S(=O)(=O)N3CCOCC3)cc2NC(=O)C(C)Oc2ccc(Cl)cc2)CC1` (stereo not drawn), the “hERG current change (%, negative = inhibition) at 1uM” value was -31.9%.

For the compound `COc1ccccc1CCC(=O)N1CCN(C(=O)c2ccccc2)CC1`, the “hERG current change (%, negative = inhibition) at 1uM” value was 9.3%.

On to `O=C(CCCC(=O)N(c1ccc2c(c1)OCCO2)C(C(=O)NC1CCCCC1)c1ccc(F)cc1)Nc1ccccn1` (stereo not drawn), for which the “hERG current change (%, negative = inhibition) at 1uM” value is listed as 13.8%.

In the case of `CC(C)(C)C(=O)Nc1ccc(NC(=O)C(C)(C)C)cc1`, the “hERG current change (%, negative = inhibition) at 1uM” value was 4.17%.

For the compound `C=CCc1cccc2cc(C(=O)O)c(=O)oc12`, the “hERG current change (%, negative = inhibition) at 1uM” value is -3.89%.

For the compound `CC1CCCC(C)N1CCCNC(=O)Cn1ncc2c3ccccc3n(C)c2c1=O` (stereo not drawn), the “hERG current change (%, negative = inhibition) at 1uM” value came out at 10%.

On to `O=C(N/N=C1/SCC(=O)N1Cc1ccco1)c1ccccc1F`, for which the “hERG current change (%, negative = inhibition) at 1uM” value was found to be 13.6%.

Regarding `COc1cccc(N=C2SC(CC(=O)Nc3ccccc3)C(=O)N2Cc2ccccn2)c1` (stereo not drawn), the “hERG current change (%, negative = inhibition) at 1uM” value came out at 1.07%.

As to `O=C(CCC1CCCCC1)NC1=NCCS1`, the “hERG current change (%, negative = inhibition) at 1uM” value turned out to be 12.1%.

For the compound `Cc1ccc(CNC(=O)c2cc3c(=O)n4ccccc4nc3n(CC3CCCO3)c2=N)cc1` (stereo not drawn), the “hERG current change (%, negative = inhibition) at 1uM” value is on record as -85.7%.

Take `Fc1ccccc1-c1nc(NC2CCCC2)c2ccccc2n1`: the “hERG current change (%, negative = inhibition) at 1uM” value was determined as 13.5%.

As for `Cc1ccc(Sc2nnc(Cc3ccccc3)c3ccccc23)cc1`, the “hERG current change (%, negative = inhibition) at 1uM” value was found to be 13.4%.

As for `Cc1nn(-c2ccccc2)c2c1C(c1cccc([N+](=O)[O-])c1)N(c1ccccc1)C(=O)N2` (stereo not drawn), the “hERG current change (%, negative = inhibition) at 1uM” value was 13.8%.

Consider `O=C(O)C1CCCN1S(=O)(=O)c1ccc2c(c1)CCC2` (stereo not drawn), for which the “hERG current change (%, negative = inhibition) at 1uM” value was -6.93%.

For the compound `CCCN1CCN(C(=O)Cn2cccc2C(=O)c2ccccc2)CC1`, the “hERG current change (%, negative = inhibition) at 1uM” value is 4.98%.

Consider `COc1ccc(-c2noc(CSc3nc4sc(C)c(C)c4c(=O)n3-c3ccccc3)n2)cc1OC`, for which the “hERG current change (%, negative = inhibition) at 1uM” value is -0.518%.

Regarding `CC(=O)c1cccc(NC(=O)c2cc(=O)[nH]c3ccccc23)c1`, the “hERG current change (%, negative = inhibition) at 1uM” value was 7.94%.

Turning to `COC(=O)c1nc2n(n1)C(c1cccc(Cl)c1)C1=C(CC(C)(C)CC1=O)N2` (stereo not drawn), the “hERG current change (%, negative = inhibition) at 1uM” value was determined as 9.5%.

For `O=C(Cc1ccccc1)Nc1ccc2oc(=O)ccc2c1`, the “hERG current change (%, negative = inhibition) at 1uM” value is given as 8.05%.

As for `CC(C)(C)NC(=O)C(OC(=O)c1cccs1)c1ccccc1` (stereo not drawn), the “hERG current change (%, negative = inhibition) at 1uM” value was found to be 37.1%.

With `O=C(CCS(=O)(=O)c1ccccc1)NC1CCCC1`, the “hERG current change (%, negative = inhibition) at 1uM” value is listed as -8.27%.

Regarding `COc1ccccc1CC(=O)N1CCN(c2cccc(Cl)c2)CC1`, the “hERG current change (%, negative = inhibition) at 1uM” value stood at 1.37%.

For the compound `Cc1sc(NC(=O)Cc2ccc3c(c2)OCO3)nc1-c1ccc2c(c1)CCN2C(=O)c1ccccc1F`, the “hERG current change (%, negative = inhibition) at 1uM” value amounted to 10.6%.

Regarding `COc1ccc(Nc2nc(C)nc3c2nnn3Cc2ccccc2Cl)c(OC)c1`, the “hERG current change (%, negative = inhibition) at 1uM” value is listed as 13.7%.

In the case of `COc1ccccc1-c1cc(C(=O)NCc2ccc(F)cc2)no1`, the “hERG current change (%, negative = inhibition) at 1uM” value worked out at 3.2%.

Take `Cc1ccc(N(CC(O)CON=C2c3ccccc3-c3ccccc32)S(C)(=O)=O)cc1` (stereo not drawn): the “hERG current change (%, negative = inhibition) at 1uM” value is on record as 15.4%.

For `Cc1c(NC(=O)CCSCCc2ccccn2)cccc1[N+](=O)[O-]`, the “hERG current change (%, negative = inhibition) at 1uM” value was determined as 7.15%.

For `COc1ccc(-c2noc(CN(C(=O)C(C)(C)C)C(C)C)n2)cc1`, the “hERG current change (%, negative = inhibition) at 1uM” value was 4.73%.

With `COc1ccc(/C=N/n2cnnc2)cc1Br`, the “hERG current change (%, negative = inhibition) at 1uM” value was 8.82%.

As to `CC(C)(C)NC(=O)COC(=O)c1c2c(nc3ccccc13)CCC2`, the “hERG current change (%, negative = inhibition) at 1uM” value is 16.7%.

As to `CCCN(CC(=O)Nc1ccccc1OC)C(=O)c1ccc2[nH]c3c(c2c1)CC(C)CC3` (stereo not drawn), the “hERG current change (%, negative = inhibition) at 1uM” value stood at 0.531%.

Take `CCNC(=S)N/N=C/c1cn(Cc2ccccc2F)c2ccccc12`: the “hERG current change (%, negative = inhibition) at 1uM” value came out at 7.96%.

Consider `Cc1cc(C(=O)Nc2c[nH]c(=O)[nH]c2=O)ccc1[N+](=O)[O-]`, for which the “hERG current change (%, negative = inhibition) at 1uM” value was 16.6%.

Turning to `O=C(N/N=C/c1cccc(O)c1)c1ccc(NC(=O)c2cccc([N+](=O)[O-])c2)cc1`, the “hERG current change (%, negative = inhibition) at 1uM” value is on record as 12.6%.

On to `Cn1cc(/C=C(\NC(=O)c2ccccc2Cl)C(=O)NCCCn2ccnc2)c2ccccc21`, for which the “hERG current change (%, negative = inhibition) at 1uM” value turned out to be 13.8%.

With `COc1n[nH]c2nncnc12`, the “hERG current change (%, negative = inhibition) at 1uM” value is -5.34%.

Take `CC(NC(=O)C1CCC(C(C)(C)C)CC1)C(c1ccccc1)N1CCOCC1` (stereo not drawn): the “hERG current change (%, negative = inhibition) at 1uM” value is given as 11.3%.

Turning to `CN(C)/C=C/C(=O)c1nnn(C2CCCCC2)c1NC1CCCCC1`, the “hERG current change (%, negative = inhibition) at 1uM” value is 5.58%.

Regarding `O=C(O)c1cc(Cl)c(Cl)cc1C(=O)Nc1cccc2cccnc12`, the “hERG current change (%, negative = inhibition) at 1uM” value came out at 12.7%.

For the compound `CSc1n[nH]c2nc3c(c(=O)n12)C1(CCCCC1)Cc1ccccc1-3`, the “hERG current change (%, negative = inhibition) at 1uM” value turned out to be 8.2%.

Consider `C#CCNC(=O)C1=C[C@H](c2ccc(C(F)(F)F)cc2)[C@@H](CCCO)[C@H](OCC)O1`, for which the “hERG current change (%, negative = inhibition) at 1uM” value came out at 1.91%.

Consider `CCCCS(=O)(=O)N1CCN(S(=O)(=O)c2cccs2)CC1`, for which the “hERG current change (%, negative = inhibition) at 1uM” value amounted to 16.3%.

As for `CCc1ccc(N2C(=O)CC(N3CCN(Cc4ccc5c(c4)OCO5)CC3)C2=O)cc1` (stereo not drawn), the “hERG current change (%, negative = inhibition) at 1uM” value is listed as -1.13%.

As to `C=C1CCN(c2ccc(C(=O)NCCC)cc2[N+](=O)[O-])CC1`, the “hERG current change (%, negative = inhibition) at 1uM” value is recorded as -8.06%.

With `COc1ccccc1NC(=O)c1ccc2c(c1)N(CC#N)C(=O)C(C)(C)O2`, the “hERG current change (%, negative = inhibition) at 1uM” value was 3.41%.

In the case of `CCCc1cc(C(=O)N2CCCC(Cc3cccc(Cl)c3)(C(=O)OCC)C2)n(C)n1` (stereo not drawn), the “hERG current change (%, negative = inhibition) at 1uM” value is 10.4%.

Consider `CCC1Sc2ccccc2N(CC(=O)NCCC2=CCCCC2)C1=O` (stereo not drawn), for which the “hERG current change (%, negative = inhibition) at 1uM” value amounted to 13.6%.

With `COc1ccc(NC(=O)C(=O)N/N=C\c2ccc(CNC(=O)C(=O)Nc3ccc(C)c(C)c3)o2)c(OC)c1`, the “hERG current change (%, negative = inhibition) at 1uM” value stood at 10.4%.

For the compound `c1ccc2oc(-c3[nH]ncc3CN(Cc3ccncc3)CC3CCCO3)cc2c1` (stereo not drawn), the “hERG current change (%, negative = inhibition) at 1uM” value stood at 10.4%.

(Values after PMC4336329 (PLoS ONE, 2015).)
